Test results published in publication PMC4336329 (PLoS ONE, 2015).
About 2,200 (0.71%) of roughly 310,000 compounds showed an effect of 50% or more. Effects have a minus sign here. This is one part of the list.

target: human ether-à-go-go-related gene (hERG) potassium channel (human, UniProt Q12809); experiment: primary screen, population patch clamp on CHO cells stably expressing hERG
Sequence (Q12809 whole entry, looked up): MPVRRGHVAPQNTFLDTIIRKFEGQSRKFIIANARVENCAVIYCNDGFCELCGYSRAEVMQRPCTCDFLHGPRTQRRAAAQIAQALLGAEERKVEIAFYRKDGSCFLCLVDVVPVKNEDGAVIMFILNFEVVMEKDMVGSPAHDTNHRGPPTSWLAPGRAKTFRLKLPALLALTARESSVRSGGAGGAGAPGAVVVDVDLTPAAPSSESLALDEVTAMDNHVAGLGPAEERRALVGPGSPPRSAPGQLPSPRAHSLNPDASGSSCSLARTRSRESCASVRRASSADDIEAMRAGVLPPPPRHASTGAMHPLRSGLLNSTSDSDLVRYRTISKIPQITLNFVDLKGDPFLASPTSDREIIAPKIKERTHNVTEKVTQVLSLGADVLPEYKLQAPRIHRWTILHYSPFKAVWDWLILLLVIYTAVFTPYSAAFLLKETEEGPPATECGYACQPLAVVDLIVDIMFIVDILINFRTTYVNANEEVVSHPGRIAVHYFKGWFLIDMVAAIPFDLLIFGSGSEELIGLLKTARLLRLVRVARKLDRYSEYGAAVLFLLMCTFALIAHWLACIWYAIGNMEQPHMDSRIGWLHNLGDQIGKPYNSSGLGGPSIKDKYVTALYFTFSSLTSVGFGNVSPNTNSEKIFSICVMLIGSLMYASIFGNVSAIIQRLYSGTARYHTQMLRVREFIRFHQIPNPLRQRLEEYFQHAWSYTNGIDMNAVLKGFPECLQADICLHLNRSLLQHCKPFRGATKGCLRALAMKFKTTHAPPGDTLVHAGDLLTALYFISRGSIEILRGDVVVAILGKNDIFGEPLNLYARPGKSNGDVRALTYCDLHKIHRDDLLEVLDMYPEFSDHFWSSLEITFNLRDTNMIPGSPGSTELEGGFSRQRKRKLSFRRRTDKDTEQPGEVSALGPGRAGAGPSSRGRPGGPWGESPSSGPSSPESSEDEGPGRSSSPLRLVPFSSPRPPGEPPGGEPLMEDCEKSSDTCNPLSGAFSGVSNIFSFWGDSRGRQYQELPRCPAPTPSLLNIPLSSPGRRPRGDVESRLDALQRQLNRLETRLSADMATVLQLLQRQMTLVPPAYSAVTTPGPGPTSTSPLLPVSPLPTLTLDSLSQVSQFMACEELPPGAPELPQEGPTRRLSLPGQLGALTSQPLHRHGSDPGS

SMILES	hERG current change (%, negative = inhibition) at 1uM [%]
COC(=O)c1c(NC(=O)c2ccc(OC(C)C)cc2)sc2c1CC(C)(C)NC2(C)C	12.7
O=C(Nc1scc(-c2ccc(F)cc2)c1C(=O)O)c1ccco1	5.67
Cn1c(=O)c(C(=O)CCl)c(N)n(CC2CC2)c1=O	6.98
CC(=O)c1cc(C(C)=O)c(C)[n+](C)c1C.[O-][Cl+3]([O-])([O-])[O-]	12.8
COc1ccc(/C(O)=C2/C(=O)C(=O)N(CCCN(C)C)C2c2cccc(Cl)c2)cc1OC (stereo not drawn)	13.4
Cc1cc(Cl)ccc1NC(=S)NCc1ccco1	10.2
Cc1cccc(NS(=O)(=O)c2ccc(C)c(C(=O)OCC(=O)Nc3cc(C)on3)c2)c1	15
C[C@H](NS(=O)(=O)c1ccc2c(c1)OCCCO2)C(=O)N1CCN(c2ccc(F)cc2)CC1	-3.94
Cn1nnnc1SCC(=O)Nc1ccccc1C(=O)NCc1ccccc1	5.49
CCOC(=O)CN(C(=O)COc1nc(C)cc(C)c1C#N)c1ccc(Cl)cc1	-1.94
COc1ccccc1-c1nnc(SCC(=O)NC2CCS(=O)(=O)C2)n1CCc1ccccc1 (stereo not drawn)	11.2
Cc1ccc(OCCCCN2CCCC(C)C2)c([N+](=O)[O-])c1.O=C(O)C(=O)O (stereo not drawn)	-14.5
COc1ccc(CCN2C(=O)CC(Nc3ccc(N4CCOCC4)cc3)C2=O)cc1OC (stereo not drawn)	0.935
CCNCCOC(c1ccccc1)c1ccccc1.Cl	-11
COC(=O)c1ccc(Cl)c(NC(=O)Cc2ccccc2[N+](=O)[O-])c1	11
COC(=O)C1=C(C)Nc2c(c(=O)n(C)c(=O)n2C)C1c1ccc(C)cc1 (stereo not drawn)	8.66
COc1ccccc1C(=O)Nc1nnc(SCC(=O)NCC2CCCO2)s1 (stereo not drawn)	13.9
N#Cc1ccc(CSc2nnc(-c3ccccn3)n2-c2ccccc2)cc1	-13.3
O=C(NCCCn1ccnc1)c1cn(Cc2ccc(F)cc2)nn1	-0.951
CC(C)Oc1cccc(C(=O)C2CCCN(C3CCOCC3)C2)c1 (stereo not drawn)	-5.96
CCC(CC)C(=O)c1c[nH]c(C(=O)N2CCN(c3ccccc3F)CC2)c1	9.18
N/C(=N\OC(=O)CCC1CCCC1)c1cccc([N+](=O)[O-])c1	-53.8
COc1ccc2[nH]c3c(c2c1)CCN1C(=O)N([C@@H](C)C(=O)NCc2ccc(F)cc2)C(=O)[C@]31C	14
CCc1ccccc1N1CC23C=CC(O2)C(C(=O)OCC(C)C)C3C1=O (stereo not drawn)	4.32
Cc1ccc(Oc2ccc(OCC(=O)NC(CC(C)C)C(=O)O)cc2)cc1 (stereo not drawn)	6.76
COc1ccc(C(=O)NC2CCCCC2)cc1OC1CCN(C(C)C)CC1	-30.9
Cc1cccc(N2CCN(C(=O)c3cn(C)c(=O)c4c3c3ccccc3n4C)CC2)c1C	14.7

SMILES	hERG current change (%, negative = inhibition) at 1uM [%]
Cc1ccc2occ(C3NC(C(=O)O)CS3)c(=O)c2c1 (stereo not drawn)	13
O=C(Nc1ncc([N+](=O)[O-])s1)C1CCN(S(=O)(=O)c2cnc[nH]2)CC1	12.4
O=C(Nc1cccc2ncccc12)c1cccc(Br)c1	10.5
N#Cc1c(/N=C/c2cccnc2)sc2c1CCCC2	4.42
COc1ccc(C)cc1NC(=O)C1CC(=O)N(CCc2ccccc2)C1 (stereo not drawn)	7.99
COCc1cc(C)n(CC(=O)Nc2ccc(N3CCOCC3)c(Cl)c2)c(=O)c1C#N	11.5
CCOC(=O)c1ccc(CNC(=O)c2cc(C(C)(C)C)oc2C)o1	10.7
O=C(NC1CC1)C1=C[C@@H](c2ccc3c(c2)OCO3)C[C@@H](OCc2ccc(CO)cc2)O1	15.1
Cc1ccc(C(=O)Nc2cccc(C(F)(F)F)c2)cc1Nc1cnccn1	-0.92
COc1cc(-c2nc3ccccn3c2/N=C/c2ccc(F)cc2)ccc1O	25
CC(C)(Cc1ccccc1)NC(=O)C(=O)c1cn(CC(=O)N2CCOCC2)c2ccccc12	9.27
CSc1ccc(/C=C2\CCn3c2nc2cc(C(=O)O)ccc2c3=O)cc1	15.6
[O-]/[N+](=C\c1ccccc1)c1ccc(Br)cc1	4.81
CCOc1ccc(CN(C)C(=O)Cc2c[nH]c3ccccc23)cc1	10.1
CC1=C(C(N)=O)C(c2ccc(Cl)c(Cl)c2)n2ncnc2N1 (stereo not drawn)	17
O=C(Cn1c(=O)c2c(ncn2Cc2ccccc2)n(Cc2ccccc2)c1=O)N1CCCC1	5.54
Nc1nc(Nc2ccc(Cl)cc2)nc(NCc2ccco2)c1[N+](=O)[O-]	-0.203
CCn1c(SC(C)C(=O)NC2CCCC2)nc2cc(S(N)(=O)=O)ccc21 (stereo not drawn)	12.5
Cc1ncc([N+](=O)[O-])n1Cc1cccc(F)c1	10.7
CC1CCCCN1S(=O)(=O)c1ccc(C(=O)N(CCCN(C)C)c2nc3ccc(Br)cc3s2)cc1.Cl (stereo not drawn)	6.2
Cc1c(-n2cc(C(=O)c3cc(Br)ccc3O)cc(C#N)c2=O)c(=O)n(-c2ccccc2)n1C	-17.5
CCOc1ccc(NC(=O)c2ccc3nccnc3c2)cc1	17.3
CCN(C(=O)COC(=O)CCc1ccccc1OC)c1c(N)n(Cc2ccccc2)c(=O)[nH]c1=O	1.12
CCOC(=O)c1c(C)nc(-c2ccccc2)nc1NC(=O)CC	4.55
COC(=O)c1cc(S(=O)(=O)NCC2CCN(Cc3ccc(F)cc3)CC2)c[nH]1	7.24
COc1ccc(-c2csc3nc[nH]c(=O)c23)cc1	-8.89
COc1ccc(OC)c(S(=O)(=O)NCCc2ccccc2)c1	11.8
